# Experimental data as given in PubChem BioAssay AID1477 (National Center for Advancing Translational Sciences (NCATS), 2009).
# Out of some 230,000 compounds screened, fewer than 10 were called active. The inconclusive results got no clear call from the source; some entries with a clear call stand among them for comparison. The call rests on the fitted dose curve; in most records, active means well fitted curve in the direction sought with a large enough effect; inconclusive means small, poorly fitted or top-dose-only effect, or effect the other way, or another doubt; inactive means no such curve, though single readings can be large or run the other way. Potencies of inconclusive entries are left out as doubtful fits.
# Molecular target: Runt-related transcription factor 1 (Homo sapiens) + Core-binding factor subunit beta (Homo sapiens) (UniProt Q01196+Q13951)
# UniProt Q01196, sequence (Q01196 whole entry, looked up): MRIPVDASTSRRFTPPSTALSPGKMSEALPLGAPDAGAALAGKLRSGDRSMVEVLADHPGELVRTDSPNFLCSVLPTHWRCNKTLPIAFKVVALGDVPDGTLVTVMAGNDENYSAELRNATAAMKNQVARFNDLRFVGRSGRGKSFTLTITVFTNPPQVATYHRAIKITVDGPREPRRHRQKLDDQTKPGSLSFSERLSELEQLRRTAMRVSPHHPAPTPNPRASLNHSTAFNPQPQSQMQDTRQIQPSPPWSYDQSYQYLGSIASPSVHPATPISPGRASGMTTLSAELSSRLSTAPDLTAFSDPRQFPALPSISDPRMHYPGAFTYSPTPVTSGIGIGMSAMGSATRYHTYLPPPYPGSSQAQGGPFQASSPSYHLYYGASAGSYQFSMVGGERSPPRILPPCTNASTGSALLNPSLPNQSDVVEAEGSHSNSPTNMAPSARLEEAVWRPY
# UniProt Q01196, sequence (Q13951 whole entry, looked up): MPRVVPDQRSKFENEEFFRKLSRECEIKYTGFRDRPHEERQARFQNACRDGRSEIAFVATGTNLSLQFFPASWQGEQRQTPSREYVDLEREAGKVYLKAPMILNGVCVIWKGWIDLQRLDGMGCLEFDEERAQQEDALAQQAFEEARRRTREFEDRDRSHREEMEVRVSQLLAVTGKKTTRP
# Experiment: qHTS Assay for Compounds Blocking the Interaction Between CBF-beta and RUNX1 for the Treatment of Acute Myeloid Leukemia; on activity, negative = inhibition: % of control where 0% means no effect
# Details: AlphaScreen CBFb-His/RUNX1-biotin binding, biochemical; activity, negative = inhibition: at 59.8 µM (top of the series) unless noted
# In short: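 Proteins preincubated together for 20 min at RT before compound addition; 15 min later, nickel and streptavidin beads were added and left 90 min prior to AlphaScreen measurement.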
Structure (SMILES),Potency,"activity, negative = inhibition"
Cc1ccc(C2C(/C=C3/SC(=S)NC3=O)=C(c3cccs3)Oc3ccccc32)cc1 (configuration not stated),"inconclusive [inhibitor, partial curve]",–
O=C(O)c1ccc(N/N=C/C2=C(N3CCOCC3)C(=C\c3ccccc3)/CC2)cc1,"inconclusive [inhibitor, single point]",–
O=C1NC(=S)N(C2CC2)C(=O)/C1=C/c1ccc2c(c1)CCN2CCCCl,"inconclusive [inhibitor, single point]",–
Cc1ccc(F)cc1-c1ccc(C(=O)N=C(N)N)o1,inactive,–
COc1ccc(CC2(CO)CCN(Cc3nc(C(C)C)cs3)CC2)cc1,inactive,–
CCc1cc2c(Sc3nc4ccccc4s3)ncnc2s1,inactive,–
Cc1ccc(Cl)c(OCCCN(C)Cc2ccccc2)c1,"inconclusive [activator, partial curve, poor fit]",–
O=Cc1cc(N=Nc2ccccc2Cl)ccc1O,"inconclusive [inhibitor, partial curve]",–
CSc1nnc(SCc2nc3sc(C(=O)O)c(C)c3c(=O)[nH]2)s1,"inconclusive [inhibitor, single point]",–
CCCCN=C1NN=C(c2cc3ccccc3o2)CS1,"inconclusive [inhibitor, single point]",–
CC(Nc1nc(N2CCNCC2)nc2ccccc12)c1ccccc1 (configuration not stated),inactive,–
COc1ccccc1-c1nc(C#N)c(N2CCc3ccccc3C2)o1,"inconclusive [inhibitor, partial curve]",–
COc1ccc(OC)c(/C=C/C(=O)OCC(=O)Nc2cccc(Oc3ccccc3)c2)c1,"inconclusive [activator, partial curve]",–
NC(=O)C[N+]1(CC#CC(O)(c2ccccc2)c2ccccc2)CCCC1,inactive,–
O=C(Cn1cccc1C(=O)c1ccccc1)NCCCN1CCOCC1,inactive,–
CCOC(=O)c1cccc(NC(=O)CCc2nc(-c3ccc(C)cc3)no2)c1,inactive,–
COc1ccc(C(Cl)=C(c2ccc(OC)cc2)c2ccc(OC)cc2)cc1,"inconclusive [activator, partial curve]",–
Cc1nc(-c2coc3c(O)c(O)ccc3c2=O)cs1,"inconclusive [inhibitor, single point]",–
Nc1cccnc1Sc1ccc([N+](=O)[O-])cn1,inactive,–
CSc1nc(N2CCN(c3ccccc3Cl)CC2)c2ccccc2n1,"inconclusive [activator, single point]",–
CCCC(=O)Nc1ccc(OCC(=O)OC)cc1,inactive,–
O=[N+]([O-])c1ccc(C(=S)N2CCN(c3ccc(F)cc3)CC2)cc1,"inconclusive [inhibitor, single point]",–
COC(=O)Cc1c(C)c2ccc(OCC(=O)N(C)C)cc2oc1=O,inactive,–
O=C(c1cccc([N+](=O)[O-])c1)N1CCN(c2ccccn2)CC1,"inconclusive [inhibitor, single point]",–

Structure (SMILES),Potency,"activity, negative = inhibition"
Cc1ccc(NC(=O)CSc2nc(NS(=O)(=O)c3ccc(C)cc3)cc(=O)[nH]2)cc1,"inconclusive [activator, single point]",–
COc1ccccc1NC(=O)/C(=C/c1cccc([N+](=O)[O-])c1)c1ccccc1,"inconclusive [inhibitor, single point]",–
O=C(Nc1cccc2ccccc12)/C(Cl)=C/c1ccccc1,"inconclusive [activator, partial curve]",–
C(=N\Nc1ccccc1)/c1ccc(N2CCOCC2)cc1,inactive,–
CC1(OC(=O)CCc2ccccc2)C(=O)C=C2C=C(c3ccc(C#N)cc3)N(C3CCCC3)C=C2C1=O (configuration not stated),inactive,–
COc1ccccc1C(=O)NC(=Nc1nc2ccccc2o1)NC(=O)c1ccccc1OC,inactive,–
CCN(CC)c1ccc(-n2cc3c(=O)n(C)c(=O)n(C)c3c2)cc1,"inconclusive [inhibitor, single point]",–
COc1ccc(NC(=O)Cn2ncc(Cl)c(Cl)c2=O)cc1S(=O)(=O)N1CCOCC1,"inconclusive [inhibitor, partial curve]",–
N/C(Cc1ccc(Cl)cc1Cl)=N\OC(=O)c1ccc(Br)o1,"inconclusive [activator, single point]",–
CN1C(=O)NC(=O)/C(=C/c2ccc([N+](=O)[O-])s2)C1=O,"inconclusive [inhibitor, single point]",–
CN(C(=S)Nc1cccnc1)c1ccc(O)cc1,"inconclusive [inhibitor, single point]",–
O=C(O)c1ccc(COc2ccccc2C=C2C(=O)c3ccccc3C2=O)cc1,inactive,–
CCOC(=O)/C(C)=N/Nc1nc(-c2ccc(NC(C)=O)cc2)cs1,"inconclusive [inhibitor, full curve, poor fit]",–
O=C(CCN1CCN(Cc2ccccc2)CC1)Nc1ccccc1Cl,inactive,–
CCOC(=O)C1CCN(/C=C2/C(=O)NC(=O)N(Cc3ccco3)C2=O)CC1,"inconclusive [inhibitor, single point]",–
COc1ccc(C(C)=O)cc1CSc1nc2cc(C(=O)O)ccc2c(=O)n1Cc1ccccc1,inactive,–
O=C1N/C(=C/c2ccco2)C(=O)N1Cc1ccccc1F,"inconclusive [inhibitor, single point]",–
O=C(NCCc1ccccc1)c1c(F)cccc1F,inactive,–
CCOC(=O)c1ccc(NC(=O)COc2cc3oc(=O)c(CC(C)O)c(C)c3cc2Cl)cc1 (configuration not stated),inactive,–
CC[C@@H](c1ccccc1)n1c(=O)n2n(c1=O)[C@H]1[C@H](O)[C@H]3O[C@@H]3/C(=N/OC[C@@H](O)COCc3ccco3)[C@@H]1CC2,–,inactive: 9.36% [at 13.1 µM]
COc1ccc(/C=N/NC(=O)c2ccncc2)cc1CN1CCCc2ccccc21,"inconclusive [inhibitor, single point]",–
Cc1cc(C)c(-c2csc(NC(=O)c3n[nH]c(=O)c4ccccc34)n2)c(C)c1,inactive,–
Cc1ccc(/C=C/C(=O)NCc2ccco2)o1,"inconclusive [inhibitor, single point]",–
